In article PMC4242493:
The other results are listed elsewhere or left out. The list includes weakly bound sequences.

Target: MaxL homodimer (UniProt P61244)
Test: universal protein-binding microarray (PBM)
Conditions: PBS-based mixture, 10 nM His-tagged protein dimer, 2% milk, 200 ng/uL BSA, 50 ng/uL salmon testes DNA, 0.02% TX-100; detection with Alexa 488 anti-His …; high values mean tight binding; most listed sequences are background and not binding sites; double strand, one strand shown

UniProt P61244, sequence (P61244 whole entry): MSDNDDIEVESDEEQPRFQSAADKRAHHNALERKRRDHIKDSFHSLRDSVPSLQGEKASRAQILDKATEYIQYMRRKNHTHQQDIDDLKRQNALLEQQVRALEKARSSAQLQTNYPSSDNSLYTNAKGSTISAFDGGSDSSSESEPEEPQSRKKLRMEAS

Row | Sequence | binding signal (normalized occupancy)
1 | GGTGATGA | 0.0784
2 | CGATCTAC | 0.0779
3 | ATCTGTTG | 0.0749
4 | CTCTACGC | 0.0747
5 | GCGTCCTA | 0.0734
6 | CCTTTATA | 0.0822
7 | CCTGAGCC | 0.0719
8 | CCTACCGC | 0.0703
9 | CCCTTCCA | 0.0717
10 | CGACGGAA | 0.069
11 | AGTATTGC | 0.0781
12 | AAAGATAG | 0.0726
13 | GAAGGTGC | 0.0733
14 | ATTTATAG | 0.0799
15 | AATGATAC | 0.0763
16 | GCAGCACA | 0.0778
17 | GTCGTTAA | 0.0738
18 | TAAATCAA | 0.0716
19 | GAGGCCTA | 0.075
20 | CTAAGCAG | 0.0671
21 | GCAAGGGA | 0.0715
22 | ACATCGTG | 0.0998
23 | AATCTAGC | 0.0807
24 | TCGAATCA | 0.075
25 | CATAGAGA | 0.074

Row | Sequence | binding signal (normalized occupancy)
26 | ACCGAAGA | 0.0716
27 | GTAGAGGA | 0.0732
28 | CGGGCAGA | 0.069
29 | CTACTGCC | 0.0744
30 | GACTTTTA | 0.0753
31 | CTCGATCC | 0.0727
32 | AAATCTTC | 0.0711
33 | AGGCTACA | 0.0725
34 | ATCAAATG | 0.0776
35 | CACGGAAG | 0.0721
36 | AATATGTG | 0.0882
37 | ACATTCTG | 0.083
38 | GTCGGATA | 0.0771
39 | CAGGCGGA | 0.0767
40 | CACACCAC | 0.0917
41 | CCCTACCA | 0.0813
42 | GCGCAAGA | 0.0685
43 | GGAGCCCC | 0.068
44 | TCATTCCA | 0.0776
45 | CTACTCGA | 0.0717
46 | CCCGTGCA | 0.0874
47 | AGCTCCCA | 0.0706
48 | GACACAAC | 0.0744
49 | GCCTATGA | 0.0799
50 | AGACGGAA | 0.0698

Row | Sequence | binding signal (normalized occupancy)
51 | GTCATCTA | 0.0772
52 | ATACCGTA | 0.074
53 | CAGAGCTC | 0.0676
54 | GCAATATA | 0.0786
55 | GCGTTAGA | 0.0731
56 | AGTCTAAC | 0.0768
57 | CTTTAAGC | 0.0686
58 | AGGATCAC | 0.086
59 | GATCCCGA | 0.0744
60 | CGTACTTA | 0.0765
61 | GCTGTAGA | 0.0741
62 | CGCGCGAA | 0.075
63 | GCTATGTA | 0.0774
64 | CTTCCTAC | 0.0696
65 | CGCGGAGA | 0.0679
66 | CGACTACC | 0.0729
67 | GCCCAAGC | 0.0692
68 | TCCAAGGA | 0.0679
69 | CATGACGA | 0.0829
70 | TGAGGCAA | 0.0764
71 | CACGGGGC | 0.0863
72 | ACCACACG | 0.0972
73 | GGGATGCA | 0.0857
74 | CTGGCGGA | 0.0747
75 | ACACCTAC | 0.0802

Row | Sequence | binding signal (normalized occupancy)
76 | AACCTATC | 0.0788
77 | ATATGAGC | 0.0845
78 | TACTAGTA | 0.07
79 | CTCCGATA | 0.0722
80 | GGAATGGA | 0.0781
81 | CCTCTAGA | 0.0678
82 | GTGGTCGA | 0.0832
83 | ACGTAGCG | 0.0805
84 | CAACAGCC | 0.0719
85 | GGCTGCTA | 0.071
86 | ACGAATTG | 0.0751
87 | GCACGAAC | 0.0828
88 | AATTGAAT | 0.0745
89 | AAGCCACC | 0.072
90 | GACCGGAC | 0.0704
91 | GGCCAAGA | 0.0669
92 | GATGCCAA | 0.075
93 | AAGCATTA | 0.082
94 | CATTTAAA | 0.0776
95 | AGGAAAAT | 0.0788
96 | CCCTCCCA | 0.0828
97 | ACCACGAC | 0.0788
98 | GCAAGCTA | 0.0719
99 | TGCACGAA | 0.0777
100 | GTCAGGAA | 0.0726

Row | Sequence | binding signal (normalized occupancy)
101 | AGTAGGCG | 0.0726
102 | CAAACTTA | 0.074
103 | CATCTCAA | 0.0793
104 | TGCTGGAA | 0.0708
105 | AAGTATAC | 0.0794
106 | ACACGCAT | 0.0976
107 | AGATTAAC | 0.074
108 | CGTGGAGC | 0.0913
109 | ACCTAACT | 0.0715
110 | CCACGTAA | 0.0803
111 | CACCGGGA | 0.0779
112 | ACAGCACC | 0.0748
113 | AGGCCCTC | 0.073
114 | AGCCATCG | 0.0774
115 | TCTTGTAA | 0.0718
116 | GTGTACGA | 0.0781
117 | AAGATATA | 0.0814
118 | CGTGCCCC | 0.0814
119 | GAGATAAC | 0.0767
120 | TAGCTATA | 0.0777
121 | TCGCGACA | 0.0724
122 | CGGCAGTC | 0.07
123 | CCGACCCC | 0.081
124 | CAGATTCG | 0.0801
125 | CTTCCTCA | 0.0751

Row | Sequence | binding signal (normalized occupancy)
126 | AGGGGTAT | 0.0835
127 | CACGCTTA | 0.103
128 | ACACATCG | 0.082
129 | CGCCGGTC | 0.0693
130 | AACGGGCG | 0.0711
131 | CCATCGGC | 0.071
132 | CGCGCACC | 0.0841
133 | CAAGCAAC | 0.0732
134 | AAGATTAA | 0.073
135 | GCCCTCCC | 0.0743
136 | AGGAGAGG | 0.0762
137 | TGTGATAA | 0.0816
138 | GAGCGATA | 0.0734
139 | CCGGCCAG | 0.0645
140 | TCTTTCAA | 0.0757
141 | AGATTGAA | 0.0772
142 | AAAAAGGC | 0.0707
143 | ACCTATAC | 0.0887
144 | AAGTCTGT | 0.0749
145 | CAATGCAC | 0.0848
146 | GCCTTAAA | 0.0724
147 | CAGGAAAA | 0.0702
148 | CATACCGG | 0.0781
149 | AGAGATAG | 0.0711
150 | AACGATAG | 0.081

Row | Sequence | binding signal (normalized occupancy)
151 | TCAATTCA | 0.0818
152 | AGGTGAAG | 0.0713
153 | ACATTGTC | 0.0885
154 | CGCACGAA | 0.0816
155 | ACGCGAGG | 0.0859
156 | CTCTTGAA | 0.069
157 | AACCGCTG | 0.0688
158 | ACACAGTG | 0.0742
159 | ACCATCAT | 0.0841
160 | GCCGGTTA | 0.0674
161 | ACCGAGGA | 0.0694
162 | CACGCAAG | 0.0838
163 | GATTAGAA | 0.0792
164 | ATCAGTTG | 0.0803
165 | CACTCCTA | 0.0771
166 | CTTCATGA | 0.0786
167 | ACACATAC | 0.0823
168 | CGCCGTTA | 0.0701
169 | CAAATAAG | 0.0746
170 | AACGGATA | 0.0769
171 | GGAGGTAC | 0.0702
172 | ACGGAACA | 0.0733
